Molecules are shown by their SMILES. Screen size: about 52,000 compounds; about 4,300 (8.3%) were called active. Cut-off read from the data, not from the text of the source: active = survival mostly below about 52% (no sharp cut-off); inactive = mostly above about 56%. The list shows a part of the results.

For the assay, the system named is DeltatarO mutant. The assay can be described thus: growth inhibition of S. aureus wild type versus tarO mutant, primary screen, teichoic acid synthesis inhibitors, RN4220, OD600 (AID 463173). The settings on record: OD600, 18 h, stronger effect = lower value, screened at 18.75 µg/mL (by protocol).
`O=C(NC1CCCCCC1)c1ccc2c(c1)sc1nc(-c3ccc(F)cc3)cn12`: the survival was inactive: 85%.

For the molecule `CCOc1ccc(NC(=O)CN2C(=O)C(c3ccccc3)=NC23CCC(C)CC3)cc1` (stereo not given), the survival is inactive: 62%.

For `COc1cc2c(=O)c(S(=O)(=O)c3ccc(F)cc3)cn(Cc3ccc(Cl)cc3)c2cc1OC`, the survival was inactive: 73%.

As to `CCOC(=O)c1ccc(CN(Cc2ccc(F)cc2)S(=O)(=O)c2cc(C(=O)Nc3cccc(C(F)(F)F)c3)ccc2F)cc1`, the survival was inactive: 67%.

Turning to `Clc1ccc(CCNC(c2nnc(-c3ccccc3)o2)c2ccccc2Cl)cc1` (stereo not given), the survival is active: -3%.

On to `CC(C)NC(=O)C1CCN(C(=O)N2CCOc3ccc(Cl)cc32)CC1`, for which the survival was inactive: 50%.

`Cc1ccc(-c2noc(-c3ccc(N4CCCCC4)c([N+](=O)[O-])c3)n2)cc1`: the survival is inactive: 69%.

For the molecule `CN1C(=O)c2ccccc2Sc2ccc(NC(=O)N3CCN(c4ccccc4F)CC3)cc21`, the survival is inactive: 82%.

In the case of `Cc1cc(C)c2c(-n3cccc3)c(C(=O)NCCCN3CCCCC3C)sc2n1` (stereo not given), the survival was inactive: 93%.

Turning to `COc1cc(-c2noc(-c3cc(C(C)C)[nH]n3)n2)cc(OC)c1OC`, the survival was inactive: 84%.

In the case of `CC(=O)Nc1nonc1-c1nnc(SCc2ccc(Cl)cc2)n1C`, the survival was active: 42%.

With `CCOC(=O)c1c(NC(=O)c2cc(=O)c3c(C)cc(C)cc3o2)sc(C(C)=O)c1C`, the survival was inactive: 60%.

On to `Cc1nn(S(=O)(=O)c2ccc(Cl)cc2)c(C)c1S(=O)(=O)N1CCCCCC1`, for which the survival was inactive: 79%.

Take `CNC(=O)COc1ccc(NC(=O)c2ccc(-c3nn(C)c(=O)c4ccccc34)cc2)cc1`: the survival was inactive: 75%.

For the molecule `CC1(C)Cc2ccccc2-c2nnc(SCC(=O)N3CCCCC3)n21`, the survival is inactive: 61%.

Regarding `CCn1c(SCc2ccccc2Cl)nc(=O)c2c(C(=O)OC)cc(C3CC3)nc21`, the survival was inactive: 77%.

Consider `O=C(Nc1ccc(F)cc1)c1cccn1-c1nnc(N2CCCCC2)s1`, for which the survival was inactive: 99%.

Turning to `CCOC(=O)c1c(C)oc2nc(C)nc(N3CCN(c4ccccc4)CC3)c12`, the survival was inactive: 83%.

Turning to `COc1ccccc1N1CCN(C(=O)CCS(=O)(=O)c2cc(Br)cc3c2N(C(=O)C2CC2)CC3)CC1`, the survival is inactive: 83%.

For `O=C(CSc1nnc(CNC(=O)c2ccccc2)n1-c1cccc(Cl)c1)Nc1ccccc1F`, the survival is inactive: 83%.

For `OC(CC#CCN1CCOCC1)(c1ccccc1)c1ccccc1`, the survival is inactive: 83%.

Consider `COc1ccc2oc(=O)c(C(=O)NCCc3c(C)[nH]c4ccc(Br)cc34)cc2c1`, for which the survival is inactive: 45%.

Regarding `CCCNC(=O)c1cnc2sc(N3CCCCC3)nn2c1=O`, the survival was inactive: 99%.

For the molecule `NNC(=O)C(NC(=O)c1ccccc1)c1n[nH]c(=O)c2ccccc12` (stereo not given), the survival is inactive: 91%.

`Cc1cn2c(=O)cc(COc3ccccc3NC(=O)c3ccccc3C)nc2s1`: the survival is inactive: 94%.

With `Cc1ccc(-c2csc(/C(C#N)=C/c3ccccc3Cl)n2)cc1`, the survival was active: 21%.

With `Cc1ccc2cccc(NC(=O)c3ccc(-c4ccc(Br)cc4)o3)c2n1`, the survival is active: 59%.

`Cc1cc(=O)c2cc(C(=O)Nc3ccccc3)ccc2[nH]1`: the survival was inactive: 88%.

Consider `CCc1ccc(-n2c(-c3ccccc3)c(C)n3c4c(=O)n(C)c(=O)n(C)c4nc23)cc1`, for which the survival is inactive: 135%.

As to `Oc1ccccc1C1=Nc2ccccc2N=C(c2ccco2)C1`, the survival was inactive: 75%.

Regarding `Cc1ccc(OCC(=O)Nc2ccc(S(=O)(=O)Nc3ncccn3)cc2)c(C(C)(C)C)c1`, the survival is active: 47%.

Turning to `CN1CCN(CCCNC(=O)c2cnn(-c3ccccc3)c2-n2cccc2)CC1`, the survival is inactive: 87%.

As for `O=C(c1ccc(F)cc1)C1CCN(S(=O)(=O)c2ccc(F)cc2)CC1`, the survival was inactive: 95%.

Take `O=c1c2sc3ccccc3c2n(Cc2cccc(C(F)(F)F)c2)c(=O)n1Cc1ccco1`: the survival is inactive: 70%.

`O=C(NCCN1CCOCC1)c1c(Cl)cccc1Cl`: the survival was inactive: 102%.

Turning to `CC(C)(C)C(=O)CSc1nc2ccsc2c(=O)n1Cc1ccccc1F`, the survival is inactive: 126%.

On to `O=C(NCc1cccc(F)c1)C1CCN(C(=O)c2sccc2-n2cccc2)CC1`, for which the survival is inactive: 121%.

For `O=C(Nc1cc(NC(=O)c2ccccc2Cl)ccc1Cl)c1ccccc1`, the survival is inactive: 65%.

With `CCOc1ccccc1CNC(=O)c1ccc2nc(Cc3ccc(OC)cc3)oc2c1`, the survival is inactive: 73%.

For `COc1ccc(N2CCN(C(=O)CCNS(=O)(=O)c3ccc4c(c3)CCN4C(=O)C3CC3)CC2)cc1`, the survival is inactive: 75%.

As for `COc1ccc(CNC(=O)c2ccc(Cn3c(=O)c4cccn4c4cccnc43)cc2)cc1OC`, the survival is inactive: 67%.

In the case of `CCOc1ccccc1NC(=O)N1CCCC(c2nc3c(nnn3Cc3ccc(C)cc3)c(=O)[nH]2)C1` (stereo not given), the survival is inactive: 82%.

In the case of `CCOCCCNC(=O)NC(CCC(C)C)c1c(-n2cccc2)sc2c1CCN(C)C2` (stereo not given), the survival was inactive: 117%.

`N#CCSc1ncccc1-c1nc2ccccc2[nH]1`: the survival was inactive: 100%.

As to `COc1ccc(CNC(=O)CN2C(=O)COc3ccc(S(=O)(=O)NC4CCCC4)cc32)cc1`, the survival is inactive: 99%.

Take `COc1ccc(CCNC(=O)CCc2c(C)nc3cc(-c4ccccc4OC)nn3c2C)c(OC)c1`: the survival was active: 54%.

In the case of `CCOC(=O)N1CCN(c2ncc3c(n2)CC(c2ccccc2O)CC3=O)CC1` (stereo not given), the survival was inactive: 85%.

For `COc1ccc(/C=C\c2onc(C)c2S(=O)(=O)N2CCC(C(=O)Nc3cccc(Cl)c3)CC2)cc1`, the survival was inactive: 57%.

In the case of `COc1ccccc1NC(=O)CSc1nnc2c3ccccc3n(C(C)C)c2n1`, the survival was active: 33%.

With `CC(=O)n1cc(C2C(=O)CC(C)(C)CC2=O)c2ccccc21`, the survival is inactive: 79%.

Consider `COc1cccc(C(=O)N2CCc3c([nH]c4ccccc34)C2c2ccc(SC)cc2)c1` (stereo not given), for which the survival is inactive: 124%.

As to `Cc1ccc(Nc2nnc(-c3cc4c(ccc5ccccc54)oc3=O)s2)cc1`, the survival was inactive: 122%.

Regarding `CNC(=O)C1CCC(Cn2c(=O)c3sccc3n(CC(=O)NCc3cccc(OC)c3)c2=O)CC1` (stereo not given), the survival was inactive: 73%.

As for `Cc1cc(C)cc(Nc2cc(C)nc3nncn23)c1`, the survival is inactive: 53%.

As for `Cc1cccc(-c2nc3scc(CCNC(=O)c4ccc(Br)o4)n3n2)c1`, the survival is inactive: 80%.

In the case of `CCC(CC)C(=O)Nc1ccc(-c2cn3cccnc3n2)cc1`, the survival is inactive: 91%.

Consider `Cc1ccc(CNc2ncnc3c2nc2n3CCCC2)cc1`, for which the survival was inactive: 92%.

Regarding `CCN(C(=O)CSc1nc2ccccc2n1CC(=O)NCc1ccc(OC)cc1)c1ccccc1`, the survival was inactive: 73%.

Regarding `O=C(O)c1cccn2c(=O)c3ccccc3nc12`, the survival is inactive: 93%.

For `CCOC(=O)c1ccc(NC(=O)CN2c3ccccc3S(=O)(=O)c3ccccc32)cc1`, the survival is inactive: 117%.

As for `CCOC(=O)c1cc(-c2ccccc2)n(CCC(=O)NC2CCCCC2)c1C`, the survival is inactive: 74%.

Consider `Cc1ccc2nc(CSc3nnc(NC(=O)c4cccc(Br)c4)s3)cc(=O)n2c1`, for which the survival is inactive: 72%.

For `CCc1oc(C(=O)O)cc1CN`, the survival is inactive: 97%.

Regarding `C/C(N)=C\C(=O)Nc1ccccc1`, the survival is inactive: 83%.

For `COc1cccc(CNC(=O)CCCN2C(=O)CCn3nc(-c4cccn4C)cc32)c1`, the survival was inactive: 94%.

With `Cc1nnc(N(C)C(=O)c2ccc3c(c2)OCO3)s1`, the survival was inactive: 80%.

For the molecule `CCOC(=O)c1cccc(NC(=O)Cn2c(=O)nc(-c3ccccc3F)c3cc(Cl)ccc32)c1`, the survival was inactive: 76%.

Consider `CCn1c(=O)c2cc(C(=O)N(CC(C)C)CC(C)C)sc2c2ccccc21`, for which the survival was active: -4%.

On to `CCOc1ccc(CCNC(=O)c2csc3c2CCCCC3)cc1`, for which the survival was inactive: 73%.

For the molecule `CCCn1c(=N)c(C(=O)NC2CCCC2)cc2c(=O)n3cccc(C)c3nc21`, the survival is inactive: 60%.

On to `COc1ccc(/C=C(/C#N)c2nc(-c3ccc(-c4ccccc4)cc3)cs2)cc1OC`, for which the survival was inactive: 101%.

`COc1ccc(-c2c(C)nn3c(N4CCN(c5ccccc5)CC4)cc(C)nc23)cc1OC`: the survival was inactive: 64%.

Turning to `COc1ccc(NC(=O)CC2C(=O)N(c3ccc(F)cc3)C(=O)N2Cc2ccc3c(c2)OCO3)cc1` (stereo not given), the survival was inactive: 101%.

As for `CCCCOc1ccc(CNC(=O)c2cc3n(n2)CCCN(Cc2ccc(C)cc2)C3=O)cc1`, the survival is inactive: 75%.

`COc1ccc(OCCn2c(C)nc3cc(C)c(C)cc32)cc1`: the survival was inactive: 57%.

Consider `CCCCSCCCNC(=O)c1cn(CC)c2ccc(S(=O)(=O)N3CCCCCC3)cc2c1=O`, for which the survival is inactive: 61%.

In the case of `CCc1cccc(C)c1NC(=O)c1cc(S(=O)(=O)N2CCOCC2)cn1C`, the survival is inactive: 68%.

In the case of `CCOC(=O)c1ccccc1NC(=O)n1ncc2cc(Cl)ccc21`, the survival is inactive: 85%.

For `Cc1noc(C)c1S(=O)(=O)Nc1ccc(C(=O)Nc2ccc(Br)cc2)cc1`, the survival is active: 36%.

On to `COc1cc(NC(=O)CCn2cnc3ccccc3c2=O)cc(OC)c1`, for which the survival is inactive: 122%.

Turning to `CNC(=O)CSc1nnc(NC(=O)Nc2ccccc2)s1`, the survival was inactive: 94%.

In the case of `Cc1ccc2oc3c(c(=O)c2c1)C(c1ccc(OCC(N)=O)cc1)N(Cc1ccc2c(c1)OCO2)C3=O` (stereo not given), the survival was inactive: 93%.

With `O=C(CSc1nnc(-c2ccc(Br)cc2)n1-c1ccccc1)c1ccccc1`, the survival was inactive: 69%.

Consider `CCOc1ccc(-c2cc(C(=O)N3CCN(c4cccc(C(F)(F)F)c4)CC3)c3ccccc3n2)cc1`, for which the survival is inactive: 102%.

Take `COc1ccc(NC(=O)C(=O)NCC2(c3ccccc3)CCCC2)c(OC)c1`: the survival is inactive: 63%.

Consider `COc1ccc(C(=O)NCC(c2ccc3c(c2)OCO3)N2CCN(c3ccc(F)cc3)CC2)cc1` (stereo not given), for which the survival was inactive: 86%.

Regarding `COc1cccc(/C=N/NC(=O)COc2c(C)cccc2C)c1O`, the survival was inactive: 88%.

As to `CC1(C)CC(=O)C2=C(C1)NC1=C(C(=O)CC(C)(C)C1)C2c1ccc2c(c1)OCO2`, the survival is inactive: 96%.

With `Cc1ccc(N(CC(C)C)S(=O)(=O)c2nnc(NC(=O)c3cccs3)s2)cc1`, the survival was active: 34%.

For the molecule `Fc1ccc(Nc2nc(Nc3ccc(F)cc3)nc(N3CCOCC3)n2)cc1`, the survival is inactive: 87%.

Source of the values: PubChem BioAssay AID463173 (ICCB-Longwood Screening Facility, Harvard Medical School, 2010).
